Laboratory results from PubChem BioAssay AID624417 (National Center for Advancing Translational Sciences (NCATS), 2012).
The campaign covered roughly 410,000 compounds. About 6,400 (1.6%) were called active. The inconclusive results got no clear call from the source; some entries with a clear call stand among them for comparison. Calls follow the shape of the dose curve; as a rule, active = well fitted inhibition curve with a large enough effect; inconclusive = small, poorly fitted or top-dose-only effect; inactive = no such curve, though single readings can be large or run the other way. Where the call is inconclusive, the potency comes from a doubtful curve fit.

Each molecule was assayed against Glucagon-like peptide 1 receptor (Homo sapiens) (UniProt P43220) (assay: qHTS of GLP-1 Receptor Inverse Agonists (Inhibition Mode)). Settings: HEK293 GLP-1R CRE-luciferase, luminescence, 24 h, GLP-1R form is constitutively active; activity change, negative = inhibition: at 38.3 µM (top of the series) unless noted.
Method in brief: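 HEK293 cells stably co-expressing a cAMP-responsive luciferase reporter and constitutively active GLP-1R were seeded, incubated 12 h, then exposed to compounds for 24 h at 37 C. Luminescence was read 12 min after detection reagent; inverse agonists lower signal.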
% is scaled to controls: 0 for no effect and ±100 for the full control effect; potency is read from the fitted curve at half-maximal effect; tags tell the direction and shape of the fitted curve.
Also: nearly all actives have a fitted effect of over 55% in size.

Sequence of UniProt P43220 (P43220 whole entry, looked up): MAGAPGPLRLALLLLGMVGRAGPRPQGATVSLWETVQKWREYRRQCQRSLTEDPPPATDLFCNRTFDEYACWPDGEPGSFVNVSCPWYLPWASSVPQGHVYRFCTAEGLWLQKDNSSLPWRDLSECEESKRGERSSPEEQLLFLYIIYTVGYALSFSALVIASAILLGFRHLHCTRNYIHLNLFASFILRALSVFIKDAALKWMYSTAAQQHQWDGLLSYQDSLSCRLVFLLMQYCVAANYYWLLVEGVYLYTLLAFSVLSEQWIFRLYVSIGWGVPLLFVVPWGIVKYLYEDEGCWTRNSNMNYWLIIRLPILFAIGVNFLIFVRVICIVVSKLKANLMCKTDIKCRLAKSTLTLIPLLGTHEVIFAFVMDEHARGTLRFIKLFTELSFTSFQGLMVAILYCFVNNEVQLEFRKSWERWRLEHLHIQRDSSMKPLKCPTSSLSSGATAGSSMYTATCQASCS

Potency, inconclusive:
O=C(OCC(=O)N1CCC(Cc2ccccc2)CC1)c1ccccc1O 28.2 µM [inhibitor, single point], CCOC(=O)CC1(CC)Oc2ccccc2N1S(=O)(=O)c1ccc(C)cc1 (stereo not given) 28.2 µM [inhibitor, single point], COc1ccc(-n2c(SCC(=O)NCc3cccs3)nnc2-c2ccoc2C)cc1 2 µM [inhibitor, partial curve, poor fit], O=C(CN1CCCc2ccccc21)Nc1cccc(S(=O)(=O)N2CCOCC2)c1 10 µM [inhibitor, single point], CCCN(CC1CC1)C(=O)COC(=O)c1ccc(CNS(=O)(=O)c2ccc(F)c(Cl)c2)cc1 31.6 µM [inhibitor, partial curve, poor fit], CN(C)c1ccc(CNC(=O)C2(C)Cc3c(-c4ccccc4)ccnc3O2)cc1 (stereo not given) 5.01 µM [inhibitor, full curve, poor fit], CCN1CCn2c3c(c4cc(C)ccc42)CCCC31 (stereo not given) 11.2 µM [inhibitor, single point], CC(C)(C)c1ccc(OCc2ccc(C(=O)N/N=C/c3ccc(O)c(O)c3)cc2)cc1 10 µM [inhibitor, partial curve, poor fit], CCCCC1CCC(C(=O)N2CC(=O)Nc3ccc(F)cc3C2c2ccc(F)cc2)CC1 (stereo not given) 12.6 µM [inhibitor, single point], CCOC(=O)c1cnn(-c2ccccc2)c1-n1cccc1C(=O)C(=O)Nc1ccc(OC)cc1 5.62 µM [inhibitor, partial curve, poor fit], Cc1cccc(N2CCC(NCc3c(C(=O)N4CCCCC4)nc4c(C)cccn34)CC2)c1 10 µM [inhibitor, partial curve, poor fit], Cc1ccccc1C(=O)c1cccn1CC(=O)NCc1ccc(Cl)cc1 8.91 µM [inhibitor, partial curve, poor fit], CC(C)(C)c1ccccc1OCCOCCNCc1ccccc1 14.1 µM [inhibitor, partial curve, poor fit], O=C(CN1CCC(C(=O)c2ccc3c(c2)OCCO3)CC1)Nc1ccccc1F 28.2 µM [inhibitor, single point], COC(=O)[C@@]12CCCN1[C@H](c1ccc(-c3ccc(OC)cc3)cc1)[C@@H]1C(=O)N(C)C(=O)[C@@H]12 15.8 µM [inhibitor, single point], CCCCN(CCCC)c1ncnc2c1cnn2-c1cccc(C)c1 10 µM [inhibitor, single point], O=S(=O)(c1ccc(Br)s1)N1CCN(c2ccnc3cc(Cl)ccc23)CC1 28.2 µM [inhibitor, single point], O=C(Nc1nc2nc(-c3ccccc3)cc(-c3ccccc3)n2n1)c1ccco1 28.2 µM [inhibitor, single point], CCCCCCn1cc(C(=O)OCC)c(=O)c2cc(F)c(F)cc21 28.2 µM [inhibitor, single point], COc1ccc(C2CCCN2C(=S)Nc2cccc(Cl)c2C)cc1OC (stereo not given) 6.31 µM [inhibitor, partial curve, poor fit], COc1ccccc1CNC(=O)CN1C(=O)NC2(CCC(C)CC2)C1=O (stereo not given) 11.2 µM [inhibitor, single point], Cc1ccc(-n2nc3c(N4CCC(C(=O)N5CCN(C)CC5)CC4)nnc(C)c3c2C)cc1 10 µM [inhibitor, partial curve, poor fit], COc1ccc(CNC(=S)NCc2ccc(Cl)cc2)cc1OC 11.2 µM [inhibitor, partial curve, poor fit], O=C(NCCCN1CCOCC1)c1cn(-c2ccccc2)nc1-c1ccc(Br)cc1 10 µM [inhibitor, partial curve], CCc1ccccc1Nc1cc(C(=O)NCc2ccc(C)cc2)c2ccccc2n1 10 µM [inhibitor, partial curve, poor fit], CCCNC(=O)CSCc1nc(-c2ccc(SC)cc2)oc1C 11.2 µM [inhibitor, partial curve], O=C(c1c2c(nc3ccccc13)C(=O)N(C1CCCCC1)C2)N1CCN(c2ccc(F)cc2)CC1 1 µM [inhibitor, full curve, poor fit], O=C(COc1ccccc1Cl)N1CCc2ccccc21 11.2 µM [inhibitor, single point], O=C(N1CCCC1)n1c(Cc2ccccc2)nc2ccccc21 2 µM [inhibitor, partial curve, poor fit], O=C(CCN1CCN(c2ccc(Cl)cc2)CC1)Nc1ccccc1F 28.2 µM [inhibitor, single point], CCN(CC)S(=O)(=O)c1ccc(N2CCN(c3ccccc3O)CC2)nc1 28.2 µM [inhibitor, single point], CCOc1ccc2c(c1)c1nnc(SCC3CCCO3)nc1n2C (stereo not given) 31.6 µM [inhibitor, single point], CC(O)(c1ccc(F)c(F)c1)c1nc(/C=C/c2ccccc2)cs1 (stereo not given) 28.2 µM [inhibitor, single point], CCOC(=O)C1CCN(S(=O)(=O)c2cc(-c3onc(C)c3C)ccc2C)CC1 10 µM [inhibitor, partial curve], Cn1ccc2c(-c3ccc(F)cc3)cc3c(c21)C1CCC3C1 (stereo not given) 10 µM [inhibitor, partial curve, poor fit], NS(=O)(=O)c1ccc(CNC(=O)c2cc(-c3cccs3)nc3ccccc23)cc1 28.2 µM [inhibitor, single point], CC(=O)Nc1ccc(-c2ccnc3c2CC(C)(C(=O)NCc2ccco2)O3)cc1 (stereo not given) 1.58 µM [inhibitor, full curve, poor fit], C[C@H](CO)N1C[C@H](C)[C@H](CN(C)Cc2ccc(C(=O)O)cc2)OCc2ccccc2-c2c(n(C)c3ccccc23)C1=O 10 µM [inhibitor, single point], CCCCCCCCN1C(=O)[C@H](CC(=O)N2CCSCC2)C[C@@]2(C(=O)OC)CCCCC=C12 28.2 µM [inhibitor, single point], CC1(C(=O)NCC2CCCCC2)CCN1C(=O)Cc1ccc(-c2ccccc2)cc1 (stereo not given) 12.6 µM [inhibitor, single point], Cc1[nH]n(-c2ccc(Cl)c(Cl)c2)c(=O)c1CCO 11.2 µM [inhibitor, partial curve, poor fit], C#CC[N+](C)(C)CCCCCCCCCC 1 µM [inhibitor, full curve, poor fit], O=C(NCc1ccccc1)C(c1ccc(F)cc1)N1CCN(c2ccccc2F)CC1 (stereo not given) 11.2 µM [inhibitor, partial curve, poor fit], CCC(C)Sc1ccc([C@@H]2[C@@H]3C(=O)N(CC)C(=O)[C@@H]3[C@]3(C(=O)OC)CCCCN23)cc1OC (stereo not given in full) 11.2 µM [inhibitor, single point], Fc1ccc(-n2c(Cc3ccccc3)nnc2SCc2nc(-c3cccs3)no2)cc1 11.2 µM [inhibitor, single point]

Potency, active:
CCC1CN(C(=O)NCc2cccc(OC)c2)c2cc(Cl)ccc2O1 (stereo not given) 11.2 µM, O=C(NC1CCN(C(=O)N2c3ccccc3Sc3ccccc32)CC1)c1ccccc1Cl 10 µM, COc1ccc(N2CCN(C(=O)CSc3nnc(-c4cccnc4)n3-c3ccccc3)CC2)cc1 11.2 µM

Potency, inactive:
Cc1nc2sc(C(=O)N(C)Cc3ccccc3)c(NC(=O)c3ccccc3)c2c(C)c1Cl, COc1ccc(CC(N)c2csc(NC(=O)Nc3ccc(OC)cc3)n2)cc1 (stereo not given), COc1ccc(S(=O)(=O)N2CCCCC2)cc1NC(=O)CCNC(=O)c1ccc(Cl)cc1, Cc1cc(C)n(C(C)CC(=O)NCc2ccccc2C)n1 (stereo not given), COc1ccc(Br)cc1C(=O)Nc1ccc2oc(-c3cccnc3)nc2c1, COc1cccc(=O)c2c(C)n(C)c(C)c12, O=C(COc1ccc(/C=C\[N+](=O)[O-])cc1)N1CCOCC1, c1ccc2[nH]c(-c3cscn3)nc2c1, COc1ccc(/C=N/NC(=O)c2ccccc2OC)cc1COc1ccc(C)cc1, COc1ccc(C)cc1Nc1nc2c(S(=O)(=O)c3cccc(Cl)c3)nnn2c2ccsc12, O=C(O)c1ccc(-n2c(-c3cc(C4CC4)[nH]n3)n[nH]c2=S)cc1, Cc1ccc(S(=O)(=O)c2cn(Cc3cccc(F)c3)c3cc(N4CCCC4)c(F)cc3c2=O)cc1, C=CCn1c(C(CC)CC)nc2ccccc21, C#CCn1cccc(C(=O)Nc2ccc(OC)cc2)c1=O, O=C(Cc1ccc(Br)cc1)N/N=C/c1ccc(-c2cccc(C(=O)O)c2)o1, CC1CCC(C(C)C)C(NC(=O)c2ccncc2)C1 (stereo not given)

Activity change, negative = inhibition, inconclusive:
COc1cccc(C(=O)NNc2c3ccccc3nc3ccccc23)c1 -55.6% [inhibitor]
